The source of these data is PMC9911399, “Two distinct binding modes provide the RNA-binding protein RbFox with extraordinary sequence specificity”.

The labels stand for the following.
B1: UGACGCU (DNA:RNA)
RNA: GGGAGACCGGAAUUCAGAUUGUCCUGACGCUUUAAAUCCCGUCGUAGCCACCA
DNA 1: CAATCTGAATTCCGGTCTCCC
DNA 2: TGGTGGCTACGACGGGATT
B2: CGUCGAU (DNA:RNA)
RNA: B1 RNA with U25C, A27U, C30A
DNA 1: CAATCTGAATTCCGGTCTCCC
DNA 2: TGGTGGCTACGACGGGATT
B3: AUCAACC (DNA:RNA)
RNA: B1 RNA with U25A, G26U, A27C, C28A, G29A, U31C
DNA 1: CAATCTGAATTCCGGTCTCCC
DNA 2: TGGTGGCTACGACGGGATT
B4: GGGCCAU (DNA:RNA)
RNA: B1 RNA with U25G, A27G, G29C, C30A
DNA 1: CAATCTGAATTCCGGTCTCCC
DNA 2: TGGTGGCTACGACGGGATT
B5: UCGCGCG (DNA:RNA)
RNA: B1 RNA with G26C, A27G, U31G
DNA 1: CAATCTGAATTCCGGTCTCCC
DNA 2: TGGTGGCTACGACGGGATT
B6: CAGCUCG (DNA:RNA)
RNA: B1 RNA with U25C, G26A, A27G, G29U, U31G
DNA 1: CAATCTGAATTCCGGTCTCCC
DNA 2: TGGTGGCTACGACGGGATT
B7: GCACUAC (DNA:RNA)
RNA: B1 RNA with U25G, G26C, G29U, C30A, U31C
DNA 1: CAATCTGAATTCCGGTCTCCC
DNA 2: TGGTGGCTACGACGGGATT
B8: AUCGCAC (DNA:RNA)
RNA: GGGAGACCGGAAUUCAGAUUGUCCAUCGCACUUAAAUCCCGUCGUAGCCACCA
DNA 1: CAATCTGAATTCCGGTCTCCC
DNA 2: TGGTGGCTACGACGGGATT
B9: UCACGUU (DNA:RNA)
RNA: B1 RNA with G26C, C30U
DNA 1: CAATCTGAATTCCGGTCTCCC
DNA 2: TGGTGGCTACGACGGGATT
B10: GCGUUCC (DNA:RNA)
RNA: B8 RNA with A25G, U26C, C27G, G28U, C29U, A30C
DNA 1: CAATCTGAATTCCGGTCTCCC
DNA 2: TGGTGGCTACGACGGGATT
B11: UGAGCGC (DNA:RNA)
RNA: B8 RNA with A25U, U26G, C27A, A30G
DNA 1: CAATCTGAATTCCGGTCTCCC
DNA 2: TGGTGGCTACGACGGGATT
B12: CGUUGGG (DNA:RNA)
RNA: B1 RNA with U25C, A27U, C28U, C30G, U31G
DNA 1: CAATCTGAATTCCGGTCTCCC
DNA 2: TGGTGGCTACGACGGGATT
B13: UGCUGGC (DNA:RNA)
RNA: B1 RNA with A27C, C28U, C30G, U31C
DNA 1: CAATCTGAATTCCGGTCTCCC
DNA 2: TGGTGGCTACGACGGGATT
B14: AGUAGCA (DNA:RNA)
RNA: B1 RNA with U25A, A27U, C28A, U31A
DNA 1: CAATCTGAATTCCGGTCTCCC
DNA 2: TGGTGGCTACGACGGGATT
B15: CGGCAUA (DNA:RNA)
RNA: B1 RNA with U25C, A27G, G29A, C30U, U31A
DNA 1: CAATCTGAATTCCGGTCTCCC
DNA 2: TGGTGGCTACGACGGGATT
B16: CCAACCU (DNA:RNA)
RNA: B1 RNA with U25C, G26C, C28A, G29C
DNA 1: CAATCTGAATTCCGGTCTCCC
DNA 2: TGGTGGCTACGACGGGATT
B17: GUAUAGC (DNA:RNA)
RNA: B8 RNA with A25G, C27A, G28U, C29A, A30G
DNA 1: CAATCTGAATTCCGGTCTCCC
DNA 2: TGGTGGCTACGACGGGATT
B18: CCAGGUA (DNA:RNA)
RNA: B1 RNA with U25C, G26C, C28G, C30U, U31A
DNA 1: CAATCTGAATTCCGGTCTCCC
DNA 2: TGGTGGCTACGACGGGATT
B19: GAUAGUA (DNA:RNA)
RNA: B1 RNA with U25G, G26A, A27U, C28A, C30U, U31A
DNA 1: CAATCTGAATTCCGGTCTCCC
DNA 2: TGGTGGCTACGACGGGATT
B20: UCUGCAC (DNA:RNA)
RNA: B8 RNA with A25U, U26C, C27U
DNA 1: CAATCTGAATTCCGGTCTCCC
DNA 2: TGGTGGCTACGACGGGATT

Substitutions are numbered along the chain they refer to; changes in the protein carry UniProt numbers. Some of the results follow.

The target in the experiment is T1, RBFOX1 RRM (Homo sapiens, UniProt Q9NWB1 109-208).
T1 sequence: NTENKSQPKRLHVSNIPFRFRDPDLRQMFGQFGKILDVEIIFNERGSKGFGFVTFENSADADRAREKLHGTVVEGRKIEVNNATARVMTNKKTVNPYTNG
Put plainly: EMSA; HiTS-Eq, 1 nM pool, 10 min; buffer printed only for the single-RNA assays: 10 mM Tris pH 7.5, 150 mM NaCl, 3.4 mM EDTA, 0.001% NP-40, 30 C. The settings on record: tags: His6 N-terminal (pET28a); label: 5' 32P. The essentials: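 Purified RbFox RRM, wild type or mutant, was incubated for 10 min in 50 µL with 1 nM of a 5′-radiolabelled RNA pool carrying 7 randomized nucleotides, whose flanks were annealed to DNA oligonucleotides, over a series of increasing protein concentrations. Unbound RNA was resolved on 8% native PAGE, cut out, reverse-transcribed, barcoded by PCR and sequenced on an Illumina HiSeq 2500. Relative association constants were derived from changes in read counts for each RNA species versus the control reaction and normalised to the cognate motif.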
As for B1, the binding signal was 0.018 KA relative to UGCAUGU.

For the molecule B2, the binding signal is 0.00831 KA relative to UGCAUGU.

As for B3, the binding signal is 0.000243 KA relative to UGCAUGU.

For B4, the binding signal is 0.0103 KA relative to UGCAUGU.

On to B5, for which the binding signal was 0.0239 KA relative to UGCAUGU.

For B6, the binding signal is 0.0193 KA relative to UGCAUGU.

As for B7, the binding signal is 0.0024 KA relative to UGCAUGU.

For the molecule B8, the binding signal is 0.00838 KA relative to UGCAUGU.

Consider B9, for which the binding signal was 0.00799 KA relative to UGCAUGU.

Consider B10, for which the binding signal is 0.0126 KA relative to UGCAUGU.

Turning to B11, the binding signal is 0.0179 KA relative to UGCAUGU.

In the case of B12, the binding signal is 0.00404 KA relative to UGCAUGU.

As to B13, the binding signal was 0.0238 KA relative to UGCAUGU.

B14: the binding signal is 0.0142 KA relative to UGCAUGU.

Consider B15, for which the binding signal was 0.00583 KA relative to UGCAUGU.

Consider B16, for which the binding signal was 0.00376 KA relative to UGCAUGU.

Take B17: the binding signal was 0.00925 KA relative to UGCAUGU.

With B18, the binding signal was 0.00832 KA relative to UGCAUGU.

As to B19, the binding signal was 0.0146 KA relative to UGCAUGU.

For B20, the binding signal is 0.0198 KA relative to UGCAUGU.
